Data as given in PubChem BioAssay AID1347165 (National Center for Advancing Translational Sciences (NCATS), 2019).
The whole screen tested about 220,000 compounds, of which about 5,700 (2.6%) were called active. Inconclusive means that the source gave no clear call. Such entries were picked first, then a sample of the others. The call rests on the fitted dose curve; in most records, active means well fitted inhibition curve with a large enough effect; inconclusive means small, poorly fitted or top-dose-only effect; inactive means no such curve, though single readings can be large or run the other way. Where the call is inconclusive, the potency comes from a doubtful curve fit.
Further: nearly all actives have a fitted effect of over 70% in size.
Potency means the concentration at half of the fitted maximal effect; tags describe the fitted curve by direction and shape.

Each compound was assayed against Lysine-specific demethylase 5B (Homo sapiens) (UniProt Q9UGL1) (assay: Primary screen for KDM5B Histone Demethylases FDH-coupled qHTS). Details: FDH-coupled NADH fluorescence (FDH is formaldehyde dehydrogenase); series mostly up to 57.7 µM.
UniProt Q9UGL1, sequence (Q9UGL1 whole entry, looked up): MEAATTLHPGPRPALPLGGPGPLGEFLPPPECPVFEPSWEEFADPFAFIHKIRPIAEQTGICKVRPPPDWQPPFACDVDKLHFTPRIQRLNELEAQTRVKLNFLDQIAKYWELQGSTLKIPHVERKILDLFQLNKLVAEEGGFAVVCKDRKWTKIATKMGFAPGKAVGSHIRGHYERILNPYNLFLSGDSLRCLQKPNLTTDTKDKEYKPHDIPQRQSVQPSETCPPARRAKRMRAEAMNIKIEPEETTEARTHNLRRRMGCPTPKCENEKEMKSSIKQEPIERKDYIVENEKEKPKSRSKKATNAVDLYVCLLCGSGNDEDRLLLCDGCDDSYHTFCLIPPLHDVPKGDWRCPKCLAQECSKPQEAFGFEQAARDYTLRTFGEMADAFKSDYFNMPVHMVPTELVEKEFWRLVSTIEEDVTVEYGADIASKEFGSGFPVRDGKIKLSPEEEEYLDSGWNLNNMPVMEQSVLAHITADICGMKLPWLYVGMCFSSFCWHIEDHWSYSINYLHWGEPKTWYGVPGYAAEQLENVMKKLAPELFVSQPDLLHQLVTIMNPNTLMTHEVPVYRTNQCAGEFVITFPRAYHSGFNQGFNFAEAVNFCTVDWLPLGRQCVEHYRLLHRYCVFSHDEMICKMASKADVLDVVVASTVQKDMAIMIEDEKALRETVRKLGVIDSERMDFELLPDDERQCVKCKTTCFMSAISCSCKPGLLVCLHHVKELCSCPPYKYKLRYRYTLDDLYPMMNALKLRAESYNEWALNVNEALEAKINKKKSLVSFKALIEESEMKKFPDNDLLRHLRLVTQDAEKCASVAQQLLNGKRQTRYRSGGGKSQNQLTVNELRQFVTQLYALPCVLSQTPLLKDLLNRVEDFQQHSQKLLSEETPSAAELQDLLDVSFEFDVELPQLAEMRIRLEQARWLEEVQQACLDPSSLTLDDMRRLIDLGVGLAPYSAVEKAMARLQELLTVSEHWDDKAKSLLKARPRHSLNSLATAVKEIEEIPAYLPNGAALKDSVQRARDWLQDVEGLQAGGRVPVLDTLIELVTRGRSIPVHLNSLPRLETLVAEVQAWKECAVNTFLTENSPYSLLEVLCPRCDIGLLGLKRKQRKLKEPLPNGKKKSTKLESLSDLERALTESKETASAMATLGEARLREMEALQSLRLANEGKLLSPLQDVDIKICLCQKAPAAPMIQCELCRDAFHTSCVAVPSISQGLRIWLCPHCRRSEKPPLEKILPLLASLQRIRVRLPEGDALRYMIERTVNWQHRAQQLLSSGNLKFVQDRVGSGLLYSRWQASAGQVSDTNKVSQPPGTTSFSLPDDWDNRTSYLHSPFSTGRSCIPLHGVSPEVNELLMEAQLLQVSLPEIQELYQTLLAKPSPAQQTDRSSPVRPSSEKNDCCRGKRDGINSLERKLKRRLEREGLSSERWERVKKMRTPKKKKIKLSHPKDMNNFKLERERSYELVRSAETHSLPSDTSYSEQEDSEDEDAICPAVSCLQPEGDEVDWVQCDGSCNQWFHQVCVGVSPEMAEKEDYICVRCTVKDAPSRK
Outline: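 Here, H3K4me3 peptide (12.5 µM in substrate mix) is demethylated by KDM5BΔAP, 200 nM final, after 10 min compound exposure. Formaldehyde product is coupled through FDH (0.25 U/mL in mix) to NADH fluorescence; 30-min ΔRFU feeds dose-response curves.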
For `CC(NC(=O)CN1CCN(S(=O)(=O)c2ccc(C(C)(C)C)cc2)CC1)c1cccs1` (stereo unspecified), the Potency was inconclusive: 14.1 µM [inhibitor, partial curve, poor fit].
In the case of `Cc1cc(Br)ccc1SCC(=O)OCC(=O)Nc1ccccc1OC(F)F`, the Potency is reported as “inactive”.
`CCCC(CCC)C(=O)Nc1cc(-c2cn3cccnc3n2)ccc1OC` was tested, and the Potency was inconclusive: 1.78 µM [inhibitor, full curve, poor fit].
`Cc1noc2c(-c3cccnc3NCC3CCOCC3)cc(-c3ccccc3)nc12` was tested, and the Potency was active: 31.6 µM.
For `Cc1cc(C)c(NC(=O)CN(C)C(=O)C2CCN(C(=O)c3ccc(Cl)cc3)CC2)c(C)c1`, the Potency was “inactive”.
With `CCN(Cc1cc2ccccc2[nH]c1=O)S(C)(=O)=O` the Potency was inconclusive: 15.8 µM [inhibitor, single point].
In the case of `Cc1occc1C(=O)NNS(=O)(=O)c1ccc([N+](=O)[O-])cc1`, the Potency is reported as “inactive”.
`CCOc1ccc(CCNC(=O)c2cc3c(s2)-c2ccccc2OC3)cc1OCC` was tested, and the Potency was inconclusive: 25.1 µM [inhibitor, partial curve, poor fit].
`O=C1NCCCCCN(C(=O)CC2CCCC2)[C@@H]2C[C@@H](C(=O)N3CCc4ccccc4C3)C[C@H]12` was tested, and the Potency was inconclusive: 12.6 µM [inhibitor, partial curve, poor fit].
With `Cc1c(-c2ccccc2F)[nH]c2ccc(CNC(=O)CCc3cc(=O)[nH]o3)cc12` the Potency was inconclusive: 28.2 µM [inhibitor, partial curve, poor fit].
For `COc1ccc(-c2cc(C(F)(F)F)nc(SCC(=O)N3CCC(C)CC3)n2)cc1`, the Potency was inconclusive: 2.24 µM [inhibitor, partial curve, poor fit].
With `O=C(NC1CCCCC1)c1ccc2c3c(cccc13)CC2` the Potency was inconclusive: 2.51 µM [inhibitor, full curve, poor fit].
In the case of `CNC(=O)NC(=O)CSc1cc(C)c2ccccc2n1`, the Potency is reported as “inactive”.
In the case of `CC(=O)N1CCC(C(=O)NC2CCCN(c3cc(-c4ccc(Cl)cc4)[nH]n3)C2)CC1` (stereo unspecified), the Potency is reported as inconclusive: 35.5 µM [inhibitor, partial curve, poor fit].
For `O=C1COc2ccc(Nc3ccccc3F)nc2CN1Cc1ccc(F)cc1`, the Potency was inconclusive: 39.8 µM [inhibitor, partial curve, poor fit].
In the case of `Fc1ccc(Nc2cc3c(cn2)CN(Cc2ccccc2)CCN3)cc1`, the Potency is reported as inconclusive: 39.8 µM [inhibitor, partial curve, poor fit].
`O=C(NCc1ccccn1)c1ccc2nccn2c1` was tested, and the Potency was active: 31.6 µM.
`O=C(c1cc2n(n1)CC(c1ccc(Cl)cc1)OC2)N1CCN(c2ccccn2)CC1` (stereo unspecified) was tested, and the Potency was inconclusive: 31.6 µM [inhibitor, partial curve, poor fit].
In the case of `Cc1c(Cl)cccc1-n1nc(C)c2c(C(=O)NCc3ccccc3)cc(C3CC3)nc21`, the Potency is reported as inconclusive: 22.4 µM [inhibitor, partial curve, poor fit].
For `COC(=O)c1scc(-c2ccc(C)cc2)c1S(=O)(=O)Nc1ccc(N(C)C)cc1`, the Potency was inconclusive: 1.26 µM [inhibitor, full curve, poor fit].
In the case of `Cc1cc(C)c(C(=O)NCC(N)=O)c(=O)[nH]1`, the Potency is reported as inconclusive: 8.91 µM [inhibitor, partial curve, poor fit].
`COCCNC(=O)COC(=O)c1cc(C)nc2ccccc12` was tested, and the Potency was inconclusive: 35.5 µM [inhibitor, partial curve, poor fit].
With `Cc1ccccc1-c1nc2ccc3ccccc3c2c2c1CCCC2` the Potency was inconclusive: 17.8 µM [inhibitor, partial curve, poor fit].
With `N#Cc1ccc(N2CCCC3(CCC(=O)N(Cc4ccccc4)C3)C2)nc1` (stereo unspecified) the Potency was inconclusive: 20 µM [inhibitor, single point].
In the case of `COC(=O)CNC(=O)c1cc(Br)cn2ccnc12`, the Potency is reported as active: 31.6 µM.
`COc1ccc(C(=O)/C(=C/c2ccncc2)c2nc3ccccc3o2)cc1OC` was tested, and the Potency was inconclusive: 20 µM [inhibitor, partial curve, poor fit].
With `O=C(c1sc2cccc(F)c2c1Cl)N1CCC2(CC1)OCCO2` the Potency was “inactive”.
For `CC(CNC(=O)Cc1ccc(NC(=O)N2CCSc3ncccc32)cc1)c1ccccc1` (stereo unspecified), the Potency was inconclusive: 14.1 µM [inhibitor, partial curve, poor fit].
For `CC(=O)NC[C@H]1CCN(Cc2ccc3c(c2)CCO3)C[C@H]1N(C)C`, the Potency was inconclusive: 17.8 µM [inhibitor, single point].
With `CCOC(=O)c1c(NC(C)=O)sc2c(OCC(=O)Nc3ccccc3C)c(C)ccc12` the Potency was inconclusive: 39.8 µM [inhibitor, single point].
With `COc1cccc(/C=C/c2onc(C)c2S(=O)(=O)N2CCC(C(=O)N3CCC(C)CC3)CC2)c1` the Potency was inconclusive: 1.78 µM [inhibitor, full curve, poor fit].
In the case of `Cc1ccc(C(=O)NC2CCN(c3cc(-c4ccc(F)cc4)[nH]n3)C2)cc1C` (stereo unspecified), the Potency is reported as inconclusive: 8.91 µM [inhibitor, partial curve].
In the case of `Cc1ccc(/C(O)=C2\C(=O)C(=O)NC2c2cccc(F)c2)cc1` (stereo unspecified), the Potency is reported as “inactive”.
For `CN(C(=O)CSc1nc(-c2ccccc2)no1)C1CCCCC1`, the Potency was “inactive”.
For `COc1cc(/C=C(/C#N)c2ccc(C(F)(F)F)cn2)cc(OC)c1`, the Potency was “inactive”.
In the case of `CN(Cc1ccccc1)C(=O)c1nc(-c2cccc3[nH]ccc23)no1`, the Potency is reported as inconclusive: 28.2 µM [inhibitor, partial curve, poor fit].
For `CCOC(=O)c1cccc(NC(=O)c2ccc3nc(Cc4ccccc4)oc3c2)c1`, the Potency was inconclusive: 35.5 µM [inhibitor, single point].
For `Cc1cc(=O)n(CC(=O)Nc2cc(F)ccc2F)c(N2CCc3ccccc3C2)n1`, the Potency was inconclusive: 14.1 µM [inhibitor, partial curve, poor fit].
`O=C(/C=C\c1ccc2c(c1)OCO2)NC1CC(=O)N(c2cccc(F)c2)C1` (stereo unspecified) was tested, and the Potency was inconclusive: 25.1 µM [inhibitor, partial curve, poor fit].
With `COC(=O)N(C)C1CCc2ccccc21` (stereo unspecified) the Potency was “inactive”.
`COc1ccc2c(c1)CC/C(=C\c1ccc(Br)o1)C2=O` was tested, and the Potency was inconclusive: 28.2 µM [inhibitor, partial curve, poor fit].
In the case of `Cc1ccc(S(=O)(=O)N2CCCN(C(=O)C3CC(=O)Nc4cc(F)ccc43)CC2)cc1` (stereo unspecified), the Potency is reported as “inactive”.
With `Cc1ccc(NC(=O)Cn2c(=O)n(-c3ccccc3)c(=O)c3ccc(C(=O)NCc4ccc5c(c4)OCO5)cc32)c(C)c1` the Potency was inconclusive: 31.6 µM [inhibitor, partial curve, poor fit].
With `COCCOc1ccc(S(=O)(=O)N(C)C(C)(C)C(=O)OC)cc1` the Potency was “inactive”.
With `Nc1c(C(=O)c2ccc(F)cc2)sc(Nc2ccccc2F)c1S(=O)(=O)c1ccc(Br)cc1` the Potency was inconclusive: 22.4 µM [inhibitor, partial curve, poor fit].
For `CC/C=C(/C)C(=O)NC(C)CN1CCOCC1` (stereo unspecified), the Potency was “inactive”.
For `O=C(Cn1ncn2nc(-c3cccs3)cc2c1=O)NCc1cccc(Br)c1`, the Potency was inconclusive: 15.8 µM [inhibitor, partial curve, poor fit].
With `CCOC(=O)c1c(COc2cccnc2[N+](=O)[O-])nc2ccccc2c1C` the Potency was “inactive”.
`CC(C)Cn1c(SCC(=O)NC(C)c2ccc(F)cc2F)nc2ncccc2c1=O` (stereo unspecified) was tested, and the Potency was inconclusive: 39.8 µM [inhibitor, single point].
With `O=C(O)CCCC(=O)NCCN1CCCC1` the Potency was inconclusive: 14.1 µM [inhibitor, partial curve, poor fit].
`C=C(CC)CN1CCCC12Cc1ccccc1CNC2=O` (stereo unspecified) was tested, and the Potency was “inactive”.
`CCOc1ccccc1C(=O)NC1CCCN(c2cc(-c3ccc(OC)cc3)[nH]n2)C1` (stereo unspecified) was tested, and the Potency was inconclusive: 35.5 µM [inhibitor, partial curve, poor fit].
With `COc1ccc(-n2c(=O)c3c(c4cc(OC)ccc4n3C)n(Cc3cc(C)ccc3C)c2=O)cc1` the Potency was inconclusive: 17.8 µM [inhibitor, partial curve, poor fit].
In the case of `Cc1nc(C)c(-c2csc(Nc3ccc(N(C)C)cc3)n2)s1`, the Potency is reported as “inactive”.
With `O=C1C=C(NCCN2CCOCC2)CC(c2ccco2)C1` (stereo unspecified) the Potency was inconclusive: 28.2 µM [inhibitor, partial curve, poor fit].
`Cc1ccc(NC(=O)C2CCCC2)cc1I` was tested, and the Potency was “inactive”.
For `O=C(N/N=C/c1ccc(N(c2ccccc2)c2ccccc2)cc1)C1CC1`, the Potency was inconclusive: 1.78 µM [inhibitor, partial curve, poor fit].
In the case of `O=C(NCCNC(=O)c1ccccc1Nc1ccccc1)c1ccccc1Nc1ccccc1`, the Potency is reported as “inactive”.
For `CCOc1ccc(CNC(=O)c2ccc(NC(=O)c3nnc(C)s3)cc2)cc1OC`, the Potency was inconclusive: 39.8 µM [inhibitor, single point].
`Cc1cc(C)c2c(-c3ccc(F)cc3)c(C#N)c(=O)n(C)c2n1` was tested, and the Potency was inconclusive: 35.5 µM [inhibitor, single point].
In the case of `COc1ccc(OC2CN(Cc3cccnc3)C2)cc1`, the Potency is reported as “inactive”.
With `CCN1c2cc(C(=O)NCc3cccc(OC)c3OC)ccc2C(=O)N2CCCCCC21` (stereo unspecified) the Potency was inconclusive: 28.2 µM [inhibitor, partial curve, poor fit].
`CC1=NOC2(CCN(Cc3cccc4ccccc34)C2)C1` (stereo unspecified) was tested, and the Potency was inconclusive: 35.5 µM [inhibitor, single point].
In the case of `Cc1nc(N2CCCCC2)cc(N2CCN(C(=O)c3ccccc3C(F)(F)F)CC2)n1`, the Potency is reported as “inactive”.
`COc1ccc(-c2cc3c(=O)n(CCNC(=O)c4ccc(OC)cc4OC)ccn3n2)cc1` was tested, and the Potency was active: 35.5 µM.
`CCn1cc(-c2cc(C(=O)N3CCCCCC3)c3cccc(C)c3n2)cn1` was tested, and the Potency was active: 31.6 µM.
